# Source: the supplement of paper PMC7826260
# The other results are listed elsewhere or left out. Viral Rep nickase domains cut single-stranded DNA in vitro (3 µM enzyme, 1 h, 37 °C); shown is the middle of each 90-letter strand. A value is the log2 ratio of uncut reads to the pool without enzyme; more negative means more cut, near 0 not cut, and no call is made. Reads are scaled to the total, so uncut sequences can rise above 0 when many others are cut.
# Tests used:
# Experiment in all cases: uncleaved DNA left, log2 of reads against the no-enzyme library (log2 ratio); higher = less cleavage (more negative = more Rep cleavage of the k-mer); sequences stand for … in CTCGTCCG…ACCGGAGA
# [1] = tested on: T1, Rep nickase domain of Muscovy duck circovirus
# T1 sequence (protein, residues 1-111, tag omitted): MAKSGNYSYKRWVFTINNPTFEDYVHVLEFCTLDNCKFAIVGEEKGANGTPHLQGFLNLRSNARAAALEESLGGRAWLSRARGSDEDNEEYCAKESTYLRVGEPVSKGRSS
# Procedure: (§1)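 A pool of 90-nt single-stranded DNAs with seven random bases just before the constant AC of the nick site (name = the seven bases) was cut by 3 µM recombinant His6-SUMO-tagged Rep nickase domain (300 nM DNA, 50 mM HEPES pH 8.0, 50 mM NaCl, 1 mM MnCl2, 1 h, 37 °C, three replicates). Uncut DNA was amplified and sequenced.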
# [2] = tested on: T2, Rep nickase domain of banana bunchy top virus
# T2 sequence (protein, residues 1-94, tag omitted): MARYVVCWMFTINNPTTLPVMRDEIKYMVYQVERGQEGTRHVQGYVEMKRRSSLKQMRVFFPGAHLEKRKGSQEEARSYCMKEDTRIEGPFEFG
# Procedure: as §1
# [3] = tested on: T3, Rep nickase domain of cabbage leaf curl virus
# T3 sequence (protein, residues 1-116, tag omitted): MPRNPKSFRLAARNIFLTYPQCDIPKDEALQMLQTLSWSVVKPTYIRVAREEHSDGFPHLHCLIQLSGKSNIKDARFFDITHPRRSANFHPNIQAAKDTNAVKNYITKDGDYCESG
# Procedure: as §1
# [4] = tested on: T4, Rep nickase domain of chickpea chlorotic dwarf virus
# T4 sequence (protein, residues 1-124, tag omitted): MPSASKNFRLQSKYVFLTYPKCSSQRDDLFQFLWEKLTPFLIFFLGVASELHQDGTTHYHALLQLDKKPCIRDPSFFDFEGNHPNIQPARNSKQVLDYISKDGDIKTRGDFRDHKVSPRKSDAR
# Procedure: as §1
# [5] = tested on: T5, Rep nickase domain of faba bean necrotic yellows virus
# T5 sequence (protein, residues 1-98, tag omitted): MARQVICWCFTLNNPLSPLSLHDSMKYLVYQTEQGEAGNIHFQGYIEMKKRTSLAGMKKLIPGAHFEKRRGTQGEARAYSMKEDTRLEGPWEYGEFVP
# Procedure: as §1
# [6] = tested on: T6, Rep nickase domain of maize striate mosaic virus
# T6 sequence (protein, residues 1-117, tag omitted): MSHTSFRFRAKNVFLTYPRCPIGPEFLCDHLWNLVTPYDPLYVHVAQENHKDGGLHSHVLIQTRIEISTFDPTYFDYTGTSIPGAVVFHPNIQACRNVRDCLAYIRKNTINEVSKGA
# Procedure: as §1
# [7] = tested on: T7, Rep nickase domain of porcine circovirus 2
# T7 sequence (protein, residues 2-116, tag omitted): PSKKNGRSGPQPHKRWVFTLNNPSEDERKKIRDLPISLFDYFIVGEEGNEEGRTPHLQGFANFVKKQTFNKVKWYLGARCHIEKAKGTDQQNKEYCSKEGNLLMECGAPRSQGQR
# Procedure: as §1
# [8] = tested on: T8, Rep nickase domain of tomato golden mosaic virus
# T8 sequence (protein, residues 1-124, tag omitted): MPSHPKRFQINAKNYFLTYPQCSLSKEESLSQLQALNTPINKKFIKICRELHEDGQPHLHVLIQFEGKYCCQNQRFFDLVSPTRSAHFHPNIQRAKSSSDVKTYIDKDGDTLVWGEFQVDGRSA
# Procedure: as §1
# [9] = tested on: T9, Rep nickase domain of tomato yellow leaf curl virus
# T9 sequence (protein, residues 1-136, tag omitted): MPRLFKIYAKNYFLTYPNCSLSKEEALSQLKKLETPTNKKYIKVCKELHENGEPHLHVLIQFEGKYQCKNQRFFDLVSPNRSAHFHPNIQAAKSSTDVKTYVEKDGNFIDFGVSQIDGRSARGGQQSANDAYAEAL
# Procedure: as §1
# [10] = tested on: T10, Rep nickase domain of wheat dwarf virus
# T10 sequence (protein, residues 1-137, tag omitted): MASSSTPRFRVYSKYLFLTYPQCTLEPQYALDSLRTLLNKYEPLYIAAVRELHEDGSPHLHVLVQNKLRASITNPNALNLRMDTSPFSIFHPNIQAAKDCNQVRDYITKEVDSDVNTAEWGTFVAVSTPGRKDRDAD
# Procedure: as §1
Sequence,uncleaved DNA left (log2) [1],uncleaved DNA left (log2) [2],uncleaved DNA left (log2) [3],uncleaved DNA left (log2) [4],uncleaved DNA left (log2) [5],uncleaved DNA left (log2) [6],uncleaved DNA left (log2) [7],uncleaved DNA left (log2) [8],uncleaved DNA left (log2) [9],uncleaved DNA left (log2) [10]
AGGACGA,0.0878,0.0607,0.714,1.64,0.0124,1.8,0.169,0.0135,0.0161,0.157
CTGGGTG,0.0289,-0.0636,-0.341,-0.471,0.082,-0.726,0.0738,-0.0088,0.0121,-0.068
TTGGAGT,-0.0704,-0.174,-0.44,-0.401,-0.142,-0.585,-0.04,-0.146,-0.265,-0.183
TCTGACG,0.24,0.106,-0.588,-0.553,0.106,-1.14,0.25,-0.00871,-0.00333,0.0216
CAATACG,0.0272,-0.00443,-0.849,0.134,-0.0539,-1.08,0.12,-0.0829,-0.052,-0.0907
TATACCG,-0.0633,-0.026,-0.921,-0.955,0.00494,-1.01,-0.0466,-0.0507,-0.063,-0.13
ATCCCCG,0.0125,-0.0555,-0.788,-0.00896,0.0112,-1.07,0.0349,-0.0247,-0.0146,-0.0928
ACCTCCT,-0.139,-0.0689,-0.211,-1.43,-0.101,0.121,-0.619,0.0482,-0.174,0.0314
TAGAATA,0.0828,-0.0555,-0.369,-1.95,0.0504,-0.159,-2.8,0.013,0.0144,0.0359
AGGTGGG,0.152,0.116,-0.414,-0.458,0.0648,-0.881,0.219,0.183,0.0336,-0.0476
GTTAGAG,0.0238,-0.0561,-0.136,0.0718,-0.0325,-0.52,0.0857,0.0331,0.0644,0.0106
CTGGTTG,0.052,-0.0234,-0.514,-0.358,0.0483,-0.811,-0.131,0.0362,0.0755,-0.105
TATTAAA,-2.37,-0.215,-0.019,-0.832,0.0287,-0.432,-0.783,0.0983,-0.00638,0.112
CTTGCGT,0.0279,-0.0934,-0.927,-0.425,0.0231,-0.915,0.0384,-0.071,0.00362,-0.258
ACTTCCA,-0.103,-0.000962,-0.202,-1.29,0.0162,-0.75,-0.207,-0.0312,-0.105,-0.143
TTGCACG,-0.179,-0.137,-1.12,-0.833,0.0131,-1.37,-0.0877,-0.0861,-0.162,-0.203
GGTCTTT,0.0385,0.02,0.483,0.978,-0.0945,1.87,-0.0572,-0.0599,0.0953,0.111
TAGATAG,0.0536,0.0107,-0.736,-0.623,0.125,-1.06,0.103,0.0906,0.089,0.0186
TGGCAGT,0.232,0.13,0.63,1.25,0.0557,1.17,0.213,0.00835,0.192,0.171
GTGTTGA,0.0402,0.0201,0.351,0.922,0.178,1.67,0.104,0.173,0.125,0.167

Sequence,uncleaved DNA left (log2) [1],uncleaved DNA left (log2) [2],uncleaved DNA left (log2) [3],uncleaved DNA left (log2) [4],uncleaved DNA left (log2) [5],uncleaved DNA left (log2) [6],uncleaved DNA left (log2) [7],uncleaved DNA left (log2) [8],uncleaved DNA left (log2) [9],uncleaved DNA left (log2) [10]
CTCTCTA,-0.0947,0.0883,-0.0158,-1.09,-0.0278,-0.431,-0.152,0.0147,0.0548,-0.0551
CATGATC,0.0238,-0.0018,-0.0614,-0.233,0.0226,-0.821,0.0221,-0.0433,0.0526,0.000265
CTTAACT,0.133,0.0856,-0.417,-3.15,0.194,-0.716,-0.331,0.123,0.183,0.21
GGAACCT,0.0785,0.061,0.745,1.55,0.0761,2.14,0.0598,0.0756,0.137,0.282
CTGAATT,-0.184,-0.389,-0.276,-2.33,-0.26,-0.557,-1.46,-0.287,-0.093,-0.131
CGTCAAT,0.0864,0.0915,0.578,0.966,0.0264,1.02,-0.208,0.179,0.103,0.0788
CTAGTTC,0.0274,0.0891,0.102,-1.01,-0.0692,-0.573,-0.014,-0.11,0.0394,-0.0677
AACGAAG,-0.0557,-0.0139,-0.738,-0.623,0.0785,-1.12,0.153,-0.0751,-0.123,-0.2
TGACTTT,-0.1,-0.0256,0.27,-0.465,-0.147,1.08,-0.11,-0.158,0.0523,0.152
CATTCTT,-3.52,-3.81,-1.24,-2.57,-0.909,-0.89,-3.74,-0.996,0.0643,-0.634
GCCTCCC,-0.103,-0.144,0.112,0.255,-0.0335,0.417,-0.144,-0.0836,-0.183,-0.185
GAGTTGA,0.0516,-0.0471,0.102,0.464,-0.0961,0.338,-1.87,0.116,0.054,0.0253
TTAGGCC,0.121,0.0283,0.238,0.565,-0.167,0.499,-0.156,-0.0545,-0.0786,0.0106
ACCCAAT,0.02,0.0397,-0.0505,-0.372,0.119,-0.576,-0.00123,0.0323,-0.0348,0.0988
TATGATC,-0.00481,-0.199,-0.0192,-0.683,0.0337,-0.328,-0.07,-0.137,-0.0617,-0.0477
AAATCGG,0.0256,0.0606,0.385,1.42,-0.0137,1.49,0.0858,0.0766,-0.0591,-0.00949
TCTGGTG,-0.0132,-0.0301,-0.58,-0.687,0.105,-0.903,0.16,-0.0653,0.00715,-0.155
GTTCTAC,-0.0235,0.0741,0.41,0.724,0.0628,1.78,0.0568,0.125,0.0917,0.0641
AGCGACC,-0.0396,0.0049,-0.0542,0.65,0.015,1.01,0.0101,0.0616,-0.0328,-0.0185
GTCTGAT,-0.000575,-0.0261,0.278,0.732,-0.171,1.56,-0.278,0.0554,0.0379,-0.0263

Sequence,uncleaved DNA left (log2) [1],uncleaved DNA left (log2) [2],uncleaved DNA left (log2) [3],uncleaved DNA left (log2) [4],uncleaved DNA left (log2) [5],uncleaved DNA left (log2) [6],uncleaved DNA left (log2) [7],uncleaved DNA left (log2) [8],uncleaved DNA left (log2) [9],uncleaved DNA left (log2) [10]
GCTGGAG,0.00324,0.032,-0.653,-0.32,-0.0616,-1,0.125,0.01,0.0551,-0.133
GGACACT,-0.00536,-0.0116,0.764,1.76,-0.0445,2.09,-0.00214,-0.155,-0.0245,0.0759
TGTCGGA,0.154,-0.00641,0.146,0.389,0.0143,0.00635,0.147,0.174,0.00317,0.0639
CCGTAGG,0.165,-0.0348,0.193,0.735,0.0245,0.502,0.245,0.177,0.0955,0.00013
ATTAATT,-1.76,-1.63,-0.0307,-2.42,0.0949,-0.671,-3.35,0.0497,-0.0304,-0.0253
ATGGGTC,-0.0431,-0.0964,0.232,0.607,-0.0986,0.731,0.101,-0.0982,-0.121,-0.135
TCGCCTT,0.13,-0.0831,-0.0458,-1.5,-0.00352,-0.243,-0.419,-0.132,-0.0302,0.0307
CGCGATC,0.00607,-0.0241,0.0237,0.0754,-0.0596,-0.474,0.157,-0.0628,0.0206,-0.0847
ACGCAGT,-0.00761,0.118,-0.408,-0.507,-0.0613,-0.908,0.144,0.105,0.151,-0.0965
TAGTTTC,-0.341,-0.0121,-0.0111,-0.62,-0.321,-0.273,-3.33,0.0217,0.0704,-0.0244
TTGACGC,0.07,0.0546,-0.277,-0.537,0.0279,-0.869,0.0407,-0.0597,0.0799,0.0584
CTTGGGG,0.0589,0.0753,0.142,0.492,-0.0418,-0.026,0.22,0.0838,0.0167,0.0203
TGCGTTC,0.204,0.0356,-0.161,-0.42,0.0198,-0.688,0.0698,0.0113,0.102,0.0145
GGTATAA,0.0554,0.00668,0.415,1.13,-0.0602,1.73,0.0835,0.0407,0.0979,0.124
ATTTTGG,0.0132,-0.025,-0.168,0.0078,-0.0232,-0.926,0.123,0.0156,0.0227,-0.0417
GAGTGGC,-0.00775,0.0397,0.201,0.708,-0.058,0.489,0.0673,0.0236,0.00266,-0.0398
TGGCGAA,0.0284,0.0537,-0.412,-0.378,0.0731,-0.601,0.0908,-0.13,0.084,0.0398
GACGGTT,-0.000489,-0.242,0.171,-0.161,-0.165,1.05,-0.227,-0.0589,-0.306,-0.00537
TATAACG,0.0271,-0.0304,-0.884,-0.87,0.0732,-1.09,0.123,-0.0675,0.00121,-0.123
GTACTAA,0.115,0.0459,0.399,0.902,0.0134,1.71,0.192,0.0357,0.0917,0.144
